Experimental data as given in patent US20130164251A1 (JIANGSU T MAB BIOPHARMA, published 2013).

T1: G-CSF receptor G-CSFR (R & D company, Item No. 381GR/CF) (UniProt Q99062 25-621, limits assumed)
T1 construct: Bought reagent, amine-coupled to a CM5 chip; also called the receptor
T1 sequence (looked up): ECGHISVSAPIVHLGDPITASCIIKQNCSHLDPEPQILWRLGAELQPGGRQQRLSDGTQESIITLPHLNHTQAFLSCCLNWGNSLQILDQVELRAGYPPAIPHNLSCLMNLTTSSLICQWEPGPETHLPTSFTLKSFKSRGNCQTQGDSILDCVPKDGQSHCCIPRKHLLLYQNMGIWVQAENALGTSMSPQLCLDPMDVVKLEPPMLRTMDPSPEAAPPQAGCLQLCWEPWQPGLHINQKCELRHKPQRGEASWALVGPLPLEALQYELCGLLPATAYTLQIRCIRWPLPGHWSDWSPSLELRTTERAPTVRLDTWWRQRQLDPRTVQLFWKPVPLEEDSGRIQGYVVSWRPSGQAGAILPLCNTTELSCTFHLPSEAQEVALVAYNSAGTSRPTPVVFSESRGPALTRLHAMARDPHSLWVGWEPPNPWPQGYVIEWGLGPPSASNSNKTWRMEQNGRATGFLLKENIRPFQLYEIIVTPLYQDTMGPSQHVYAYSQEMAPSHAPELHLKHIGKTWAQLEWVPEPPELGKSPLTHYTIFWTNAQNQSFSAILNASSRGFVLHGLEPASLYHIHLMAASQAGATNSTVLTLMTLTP


Molecular target: T1, G-CSF receptor G-CSFR (R & D company, …)
Experiment: SPR (Biacore 3000), G-CSFR amine-coupled to CM5 chip, 1:1 Langmuir fit
Procedure: The receptor G-CSFR (R & D company, Item No. 381GR/CF) was coupled to FC₄ cell of a CM5 chip by using an amine coupling method in Biacore® 3000 control software Wizard. HBS-P buffer (10 mM HEPES, 150 mM NaCl, and 0.005% (v/v) surfactant P20, pH 7.4) was used as the working buffer, and 1 mg/mL of G-CSFR was diluted with 10 mM NaAC (pH 4.5) to a final concentration of 20 μg/mL. A 1:1 mixture of 0.2 M EDC and 50 mM NHS was injected by flowing through the surface of the chip at a rate of 10 μL/min, G-CSFR solution was injected, then 1 M ethanolamine (pH 8.5) was injected for 7 min to block the activated chip surface.
rHSA/mG-CSF and G-CSF standards were quantitatively diluted with a HBS-P buffer, and a kinetic test was conducted following a kinetic analysis Wizard in Biacore® 3000 control software. All the samples were injected at the flow rate of 30 μL/min, and the injection time of 3 min. After 5 min of disassociation, 50 mM NaOH, 1 M NaCL, and HBS-P buffer were respectively injected for 15 s and 60 s at a flow rate of 100 μL/min for regeneration. The obtained data was fitted using a 1:1 Langmuir binding model in Biacore 3000 analysis software, to obtain exact kinetic constants: […]

Kd [nM] | Binder
18.4 | rHSA/G-CSF mutant K34H (ligand, expressed in Pichia pastoris) [not shown - about 600 residues]TPLGPASSLPQSFLLKCLEQVRKIQGDGAALQEHLCATYKLCHPEELVLLGHSLGIPWAPLSSCPSQALQLAGCLSQLHSGLFLYQGLLQALEGISPELGPTLDTLQLDVADFATTIWQQMEELGMAPALQPTQGAMPAFASAFQRRAGGVLVASHLQSFLEVSYRVLRHLAQP
5.3 | rHSA/G-CSF mutant D109H + D112H (ligand, Control mutant; expressed in Pichia pastoris; also called D110H and D113H of Sarker et al. (numbering with N-terminal Met)) [not shown - about 600 residues]TPLGPASSLPQSFLLKCLEQVRKIQGDGAALQEKLCATYKLCHPEELVLLGHSLGIPWAPLSSCPSQALQLAGCLSQLHSGLFLYQGLLQALEGISPELGPTLDTLQLHVAHFATTIWQQMEELGMAPALQPTQGAMPAFASAFQRRAGGVLVASHLQSFLEVSYRVLRHLAQP
42.7 | rHSA/G-CSF mutant K34H + L35I (ligand, expressed in Pichia pastoris) [not shown - about 600 residues]TPLGPASSLPQSFLLKCLEQVRKIQGDGAALQEHICATYKLCHPEELVLLGHSLGIPWAPLSSCPSQALQLAGCLSQLHSGLFLYQGLLQALEGISPELGPTLDTLQLDVADFATTIWQQMEELGMAPALQPTQGAMPAFASAFQRRAGGVLVASHLQSFLEVSYRVLRHLAQP
7.4 | rHSA/G-CSF mutant A37G (ligand, expressed in Pichia pastoris) [not shown - about 600 residues]TPLGPASSLPQSFLLKCLEQVRKIQGDGAALQEKLCGTYKLCHPEELVLLGHSLGIPWAPLSSCPSQALQLAGCLSQLHSGLFLYQGLLQALEGISPELGPTLDTLQLDVADFATTIWQQMEELGMAPALQPTQGAMPAFASAFQRRAGGVLVASHLQSFLEVSYRVLRHLAQP
8.5 | rHSA/G-CSF mutant E46D (ligand, expressed in Pichia pastoris) [not shown - about 600 residues]TPLGPASSLPQSFLLKCLEQVRKIQGDGAALQEKLCATYKLCHPEDLVLLGHSLGIPWAPLSSCPSQALQLAGCLSQLHSGLFLYQGLLQALEGISPELGPTLDTLQLDVADFATTIWQQMEELGMAPALQPTQGAMPAFASAFQRRAGGVLVASHLQSFLEVSYRVLRHLAQP
1.3 | rHSA/G-CSF mutant C17S (ligand, expressed in Pichia pastoris) [not shown - about 600 residues]TPLGPASSLPQSFLLKSLEQVRKIQGDGAALQEKLCATYKLCHPEELVLLGHSLGIPWAPLSSCPSQALQLAGCLSQLHSGLFLYQGLLQALEGISPELGPTLDTLQLDVADFATTIWQQMEELGMAPALQPTQGAMPAFASAFQRRAGGVLVASHLQSFLEVSYRVLRHLAQP
30.6 | rHSA/G-CSF mutant K40H + L41I (ligand, expressed in Pichia pastoris) [not shown - about 600 residues]TPLGPASSLPQSFLLKCLEQVRKIQGDGAALQEKLCATYHICHPEELVLLGHSLGIPWAPLSSCPSQALQLAGCLSQLHSGLFLYQGLLQALEGISPELGPTLDTLQLDVADFATTIWQQMEELGMAPALQPTQGAMPAFASAFQRRAGGVLVASHLQSFLEVSYRVLRHLAQP
6.5 | rHSA/G-CSF mutant D109E (ligand, expressed in Pichia pastoris) [not shown - about 600 residues]TPLGPASSLPQSFLLKCLEQVRKIQGDGAALQEKLCATYKLCHPEELVLLGHSLGIPWAPLSSCPSQALQLAGCLSQLHSGLFLYQGLLQALEGISPELGPTLDTLQLEVADFATTIWQQMEELGMAPALQPTQGAMPAFASAFQRRAGGVLVASHLQSFLEVSYRVLRHLAQP
4.3 | rHSA/G-CSF mutant H43R (ligand, expressed in Pichia pastoris) [not shown - about 600 residues]TPLGPASSLPQSFLLKCLEQVRKIQGDGAALQEKLCATYKLCRPEELVLLGHSLGIPWAPLSSCPSQALQLAGCLSQLHSGLFLYQGLLQALEGISPELGPTLDTLQLDVADFATTIWQQMEELGMAPALQPTQGAMPAFASAFQRRAGGVLVASHLQSFLEVSYRVLRHLAQP
28.5 | rHSA/G-CSF mutant K34H + L41I (ligand, expressed in Pichia pastoris) [not shown - about 600 residues]TPLGPASSLPQSFLLKCLEQVRKIQGDGAALQEHLCATYKICHPEELVLLGHSLGIPWAPLSSCPSQALQLAGCLSQLHSGLFLYQGLLQALEGISPELGPTLDTLQLDVADFATTIWQQMEELGMAPALQPTQGAMPAFASAFQRRAGGVLVASHLQSFLEVSYRVLRHLAQP
7.3 | rHSA/G-CSF mutant K16H (ligand, expressed in Pichia pastoris) [not shown - about 600 residues]TPLGPASSLPQSFLLHCLEQVRKIQGDGAALQEKLCATYKLCHPEELVLLGHSLGIPWAPLSSCPSQALQLAGCLSQLHSGLFLYQGLLQALEGISPELGPTLDTLQLDVADFATTIWQQMEELGMAPALQPTQGAMPAFASAFQRRAGGVLVASHLQSFLEVSYRVLRHLAQP
0.8 | rHSA/G-CSF mutant E45D (ligand, expressed in Pichia pastoris) [not shown - about 600 residues]TPLGPASSLPQSFLLKCLEQVRKIQGDGAALQEKLCATYKLCHPDELVLLGHSLGIPWAPLSSCPSQALQLAGCLSQLHSGLFLYQGLLQALEGISPELGPTLDTLQLDVADFATTIWQQMEELGMAPALQPTQGAMPAFASAFQRRAGGVLVASHLQSFLEVSYRVLRHLAQP
8.9 | rHSA/G-CSF mutant A6G (ligand, expressed in Pichia pastoris) [not shown - about 600 residues]TPLGPGSSLPQSFLLKCLEQVRKIQGDGAALQEKLCATYKLCHPEELVLLGHSLGIPWAPLSSCPSQALQLAGCLSQLHSGLFLYQGLLQALEGISPELGPTLDTLQLDVADFATTIWQQMEELGMAPALQPTQGAMPAFASAFQRRAGGVLVASHLQSFLEVSYRVLRHLAQP
40.1 | rHSA/G-CSF mutant K34H + K40H (ligand, expressed in Pichia pastoris) [not shown - about 600 residues]TPLGPASSLPQSFLLKCLEQVRKIQGDGAALQEHLCATYHLCHPEELVLLGHSLGIPWAPLSSCPSQALQLAGCLSQLHSGLFLYQGLLQALEGISPELGPTLDTLQLDVADFATTIWQQMEELGMAPALQPTQGAMPAFASAFQRRAGGVLVASHLQSFLEVSYRVLRHLAQP
1.5 | rHSA/G-CSF mutant E123D (ligand, expressed in Pichia pastoris) [not shown - about 600 residues]TPLGPASSLPQSFLLKCLEQVRKIQGDGAALQEKLCATYKLCHPEELVLLGHSLGIPWAPLSSCPSQALQLAGCLSQLHSGLFLYQGLLQALEGISPELGPTLDTLQLDVADFATTIWQQMEDLGMAPALQPTQGAMPAFASAFQRRAGGVLVASHLQSFLEVSYRVLRHLAQP
1.1 | rHSA/G-CSF mutant G4Y (ligand, expressed in Pichia pastoris) [not shown - about 600 residues]TPLYPASSLPQSFLLKCLEQVRKIQGDGAALQEKLCATYKLCHPEELVLLGHSLGIPWAPLSSCPSQALQLAGCLSQLHSGLFLYQGLLQALEGISPELGPTLDTLQLDVADFATTIWQQMEELGMAPALQPTQGAMPAFASAFQRRAGGVLVASHLQSFLEVSYRVLRHLAQP
3.1 | rHSA/G-CSF mutant D112E (ligand, expressed in Pichia pastoris) [not shown - about 600 residues]TPLGPASSLPQSFLLKCLEQVRKIQGDGAALQEKLCATYKLCHPEELVLLGHSLGIPWAPLSSCPSQALQLAGCLSQLHSGLFLYQGLLQALEGISPELGPTLDTLQLDVAEFATTIWQQMEELGMAPALQPTQGAMPAFASAFQRRAGGVLVASHLQSFLEVSYRVLRHLAQP
1.8 | rHSA/G-CSF mutant L3T (ligand, expressed in Pichia pastoris) [not shown - about 600 residues]TPTGPASSLPQSFLLKCLEQVRKIQGDGAALQEKLCATYKLCHPEELVLLGHSLGIPWAPLSSCPSQALQLAGCLSQLHSGLFLYQGLLQALEGISPELGPTLDTLQLDVADFATTIWQQMEELGMAPALQPTQGAMPAFASAFQRRAGGVLVASHLQSFLEVSYRVLRHLAQP
25.2 | rHSA/G-CSF mutant K40H (ligand, expressed in Pichia pastoris) [not shown - about 600 residues]TPLGPASSLPQSFLLKCLEQVRKIQGDGAALQEKLCATYHLCHPEELVLLGHSLGIPWAPLSSCPSQALQLAGCLSQLHSGLFLYQGLLQALEGISPELGPTLDTLQLDVADFATTIWQQMEELGMAPALQPTQGAMPAFASAFQRRAGGVLVASHLQSFLEVSYRVLRHLAQP
